The text below walks through data of the RNAGym collection of RNA variant scans (doi:10.1093/nar/gkz1192).

The source gives no read counts; variants with many changes may rest on few reads.

B1: CPEB3 Ribozyme (parent)
chain: UAACAGGGGGCCACAGCAGAAGCGUUCACGUCGCAGCCCCUGUCAGAUUCUGGUGAAUCUGCGAAUUCUGCUGUAUAUCUC

This data set covers variants of B1. The data set is described as follows: self-cleavage, relative activity (ratio to wild type); higher = more cleavage; in vitro, sequencing. The essentials: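 For each CPEB3 ribozyme variant, relative activity is its cleaved/total read fraction divided by the unmutated ribozyme's. Barcoded error-prone PCR libraries were transcribed by T7 RNA polymerase (5 hours, 37°C) and held in DNase I for 15 min before an EDTA stop, with cleavage occurring throughout. Template-switching reverse transcription and Illumina sequencing were used to read the RNAs. A 5-read minimum applied, and results are the mean of three batches.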
For AAACAGGGGGCCACAGCAGAAGCGUUCACGUUGCAGCCCCUGUCAGAUUCUGGUGAAACUGCUAAUUCUGCCGUAUAUCUC [U1A C32U U58A G63U U72C], the self-cleavage was 0.08.

Turning to AAACAGGGGGCCACAGCAGAAGCGUUCACGUCGCAGCCCCUGUCAGAUUCUGAUGAAUCUGCGAAUUCUGCUGUAUUUCUC [U1A G53A A77U], the self-cleavage amounted to 1.15.

On to AAACAGGGUGCCACAACAGAAGCGCUCACGUCGCAGCCCCUGUCAGAUUCUGGUGAAUCUGCGAAUUCUGCUGUAUAUCUC [U1A G9U G16A U25C], for which the self-cleavage amounted to 0.06.

For the variant AAACAGGGGGCCACAGCAGAAGCGUUCACGUCGCAGCUCCUGUCAGCUUCUGGUGAAUCUGCGAAUUCUGCUGUAUAUCUC [U1A C38U A47C], the self-cleavage is 0.22.

As for AAACAGGGGGCCACAGCAUAAGCGCUCACGUCGCAGCCCCUGUCAGAUUCUGGUGAAUCUGCGAAUUCUGCUGUAUAUCAC [U1A G19U U25C U80A], the self-cleavage amounted to 0.08.

In the case of AAACAGGGGGCCACAGUAGAAGCGCUCACGUCGCAGCCCCUGUCAGAUACUGGUGAGUCUGCGAAUUCUGCUGUAUAUCUC [U1A C17U U25C U49A A57G], the self-cleavage stood at 0.22.

Consider AAACAGGGGUCCACAGCAGAAGCGUUCACGUCGCAGCCCCCGUCAGAUUCUGGUGAAUCUGCGAAUUCAGCUGUAUAUCCC [U1A G10U U41C U69A U80C], for which the self-cleavage came to 0.17.

Consider AAACAGGUGGCCACAGCAGUAGCGUUCACGUCGCGGCCCCUGUCAGAUUCUGGUGAAUCUGCGAAUUCUGCAGUAUAUCUC [U1A G8U A20U A35G U72A], for which the self-cleavage stood at 0.13.

As for AAACAGGGGGCCACAGCAGAAGCGUUCACGUUGCAGCCCCUGUCAGAUUCUGGUGAAUCUGCGAAUUCUGCAGCAUAUCUC [U1A C32U U72A U74C], the self-cleavage came out at 0.11.

Take AAACAAGGGGCCACAGCCGAAGCGUUCACGUCGCUGCCCCUGUCAGAUUCUGGCGAAUCUGCGAAUUCGGCCGUAUAUCUC [U1A G6A A18C A35U U54C U69G U72C]: the self-cleavage was 0.12.

In the case of AAACAGGGGGCCACAACAUAAGCGUUCACGUCGCAGCCCCUGUCAGAUUCUGGUGUAUCUGCGAAUUCUGCUGUAUAUCUC [U1A G16A G19U A56U], the self-cleavage stood at 0.05.

On to AAACAAGGGGCCACAGCAGAAGCGCUCACGUCGCAGCCCCUGUCAGAUUCUGGUGAAUCCGCGUAUUCUGCUAUAUAUCUC [U1A G6A U25C U60C A64U G73A], for which the self-cleavage turned out to be 0.09.

Regarding AAACAGGGGGCCACAGCAGAAGCGUUCACGUCGCAGCCCCUGUUAGAUUCUGGCGAAUCUGCGAAUUCUGCUGUAUAUCUC [U1A C44U U54C], the self-cleavage turned out to be 0.29.

Consider AAACAGGGCGCCACAGCAGAAGCGUUCACGUCGCUGCCCCUGUCAGAUUCUGGUGAAUCUGCUAAUUCUGCUGUAUAUCUC [U1A G9C A35U G63U], for which the self-cleavage was determined as 0.22.

With AAACAGGGGGCCACAGCAGAAGCGCUCACGUCGCAGCCCCAGUCAGAUUCUGGUGAAUCUGCGAAUUCUGCAGUAUGUCUC [U1A U25C U41A U72A A77G], the self-cleavage was found to be 0.09.

In the case of AAACAGGGGGCCACAGCAAAAGCGUUCACGUCGCAGCCCCCUUCAGAUUCUGGUGGAUCAGCGAAUUCUGCUGUAUAUCUC [U1A G19A U41C G42U A56G U60A], the self-cleavage came out at 0.12.

As to AAACAAGGGGCCACAGCAGAAGCGUUCACGUCGCAGCCCCUGUCAGAUUCUGGUGAACCUGCGAAUUCUGCUGUAUAUCCC [U1A G6A U58C U80C], the self-cleavage amounted to 0.3.

Take AAACAGGGGACCACAGCAGAAGCAUUCACGUCGCAGGCCCUGUCAGAUUCUGGUGAAUCUGCGAAUUCUGCUGUAUGUCUC [U1A G10A G24A C37G A77G]: the self-cleavage is 0.05.

In the case of AAACAGGGGGCCACAGCAGAAGCAUUCACGUCGCAGCCCCAGUCGGAUUCUGGUGAAUCUGCGAAUUCUGCUGUAUAUCUC [U1A G24A U41A A45G], the self-cleavage was 0.08.

Take AAACAGGGGGCCACAGCAGAAGCGUCCACGUCGCAGCCCCUAUCAGAUUCAUGUGAAUCUGCGAAUUCUGCUGUAUAUCUC [U1A U26C G42A U51A G52U]: the self-cleavage worked out at 0.11.

On to AAACAGGGGGCCACAGCAGAAGCGCUCGCCUCGGAGCCCCCGUCAGAUUCUGGUGAAUCUGCGAAUUCUGCUGUAUAUCAC [U1A U25C A28G G30C C34G U41C U80A], for which the self-cleavage came out at 0.22.

Regarding AAACAGGGGGCCACAGCAUAAGCGUUCACGUCGCGGCCCCUGACAGAUCCUGGUGAAUCUGCGAAUUCUGCUGUAUAUCUC [U1A G19U A35G U43A U49C], the self-cleavage stood at 0.24.

On to AAACAGGGGGCCACAACAGAAGCGCUCACGUCGCAGCCCCAGUCAGAUUCUGGUGAAUCCGCGGAUUCUGCCGUAUAUCUC [U1A G16A U25C U41A U60C A64G U72C], for which the self-cleavage amounted to 0.1.

AAACACGGGGCCACAGCAGAGGCGUUCACGUCGCAGCCCCUGUCGGAUUCUGGUGAAUCUGCGAAUUCAGCUGUAUACCUC [U1A G6C A21G A45G U69A U78C]: the self-cleavage was 0.09.

On to AAACAGGGGGCCACAGCAGAAGCGUCCACGACGCGGCCCCUGUCGGGUUCUGGUGAAUCUGCGAAUUCUGCUGUACAUCUC [U1A U26C U31A A35G A45G A47G U76C], for which the self-cleavage was 0.1.

Regarding AAACAGGGGGCCACAGCAGAAGCGUUCACGUCGCAGCACCUGUCAGAUUCUGGCGAAUCUGCCAGUUCUGCUGUAUAUCUC [U1A C38A U54C G63C A65G], the self-cleavage was found to be 0.07.

Take AAACAGGAGGCCACAGCAGAAGCGUUCCCGUCGCAGCCCCUGUCAGAUUCCGGUGAAUCUGCGAAUUCUGCCGUAUAUCUC [U1A G8A A28C U51C U72C]: the self-cleavage was 0.16.

With AAACAGGUGGCCACAGCAGAGGCGUUCACAUCGCAGCCCCUGUCAGAUUCUGGUGAAUCUGCCAAUUCUGCUGUAUACCUC [U1A G8U A21G G30A G63C U78C], the self-cleavage was determined as 0.05.

Consider AAACAGGGGGCCACAGCAGAAGCGUCCACGUCGCCGCCCCUGUCAGAUUCUGGUGAGUCUGUGAAUUCUGCCGUAUAUCUC [U1A U26C A35C A57G C62U U72C], for which the self-cleavage was 0.07.

AAACAAGGGGCCACAGCAGAUGCGUUCACGCCGCAGCCCCUGUCAGAUUCUGGUGAAUCUGCGAAUUCUGCUGUAUAUCUA [U1A G6A A21U U31C C81A]: the self-cleavage was found to be 0.07.

With AAACAGGGGGCCACAGCAGAAGCGUCCACGUCGCAGCCCCUGUCAGAUUCUGGUGAAUCAGCGAAUUCUGCUGUAUAUCUC [U1A U26C U60A], the self-cleavage turned out to be 0.35.

On to AAACAGGGGGCCACAGCAGAAGCGUUCACGUCGCAGCCCCUGUCAGAUUCUGGUGAAUUUGCGAAUUCUGCUGUAUUUCUC [U1A C59U A77U], for which the self-cleavage turned out to be 0.98.

As to AAACAGGGGGCCACAGCAGAAGCGUCCACGUCGCAGCCCCUGUCAGAUUCUGGUGAAUCUGCGAAUUCUGCUGAAUAUCUC [U1A U26C U74A], the self-cleavage was 0.81.

For AAACAGGGGGCCACAGAAGAAGCGUUCACGUCGCAGCCCCUGCCAGGUUCUGGUGAAUCUGCGAAUUCUGCUGUAUAUCUC [U1A C17A U43C A47G], the self-cleavage was 0.08.
